Measured values taken from PubChem BioAssay (NCATS).
Values joined by “and” are separate entries in the source; they are usually repeats but may differ in a detail not shown here. Equal entries are not always repeated. The inconclusive results got no clear call from the source; some entries with a clear call stand among them for comparison. Potencies beside an inconclusive call are fits to weak or partial responses and may not hold up. The source holds several records for some structures; these can differ, active in one and inactive in another. Active and inactive are the calls of the source. Unless noted, the call rests on the fitted dose curve; in most records, active means well fitted inhibition curve with a large enough effect; inconclusive means small, poorly fitted or top-dose-only effect; inactive means no such curve, though single readings can be large or run the other way.
Potency means the concentration at half of the fitted maximal effect; tags describe the fitted curve by direction and shape.

Target: Atrial natriuretic peptide receptor 1 (Homo sapiens) (UniProt P16066)
UniProt P16066, sequence (P16066 whole entry, looked up): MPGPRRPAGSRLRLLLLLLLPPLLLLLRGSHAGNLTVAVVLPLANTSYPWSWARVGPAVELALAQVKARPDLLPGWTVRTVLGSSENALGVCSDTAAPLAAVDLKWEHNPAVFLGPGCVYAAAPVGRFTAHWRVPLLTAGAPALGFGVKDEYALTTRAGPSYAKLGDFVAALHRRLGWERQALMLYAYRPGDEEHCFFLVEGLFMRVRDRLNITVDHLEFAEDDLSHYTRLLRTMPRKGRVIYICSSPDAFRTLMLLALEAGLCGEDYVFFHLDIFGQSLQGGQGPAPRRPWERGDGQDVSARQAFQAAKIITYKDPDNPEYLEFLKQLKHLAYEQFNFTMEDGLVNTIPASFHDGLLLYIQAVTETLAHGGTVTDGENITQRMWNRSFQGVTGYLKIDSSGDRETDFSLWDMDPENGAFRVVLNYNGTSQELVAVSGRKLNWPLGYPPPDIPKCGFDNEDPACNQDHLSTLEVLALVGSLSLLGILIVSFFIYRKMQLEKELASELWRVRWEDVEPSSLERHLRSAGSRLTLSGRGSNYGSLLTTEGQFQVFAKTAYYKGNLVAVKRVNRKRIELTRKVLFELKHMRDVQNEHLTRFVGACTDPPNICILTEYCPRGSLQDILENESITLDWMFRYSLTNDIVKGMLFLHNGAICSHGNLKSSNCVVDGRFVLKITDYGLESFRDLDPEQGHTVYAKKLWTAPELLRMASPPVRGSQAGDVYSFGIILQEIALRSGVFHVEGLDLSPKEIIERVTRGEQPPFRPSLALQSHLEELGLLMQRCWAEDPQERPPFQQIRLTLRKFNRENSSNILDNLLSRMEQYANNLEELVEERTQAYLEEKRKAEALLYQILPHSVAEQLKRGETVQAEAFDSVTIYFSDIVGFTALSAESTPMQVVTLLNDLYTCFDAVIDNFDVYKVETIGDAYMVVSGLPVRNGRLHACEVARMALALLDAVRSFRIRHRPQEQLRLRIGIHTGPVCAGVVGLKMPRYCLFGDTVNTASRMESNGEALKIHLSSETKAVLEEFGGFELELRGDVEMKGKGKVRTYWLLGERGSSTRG
Assay: Natriuretic polypeptide receptor (hNpr1) antagonism - Pilot screen (AID 1347049; calls by dose curve;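 further: HEK293 cells with hNpr1 and GloSensor cGMP luciferase stimulated by 0.1 nM hNppA; agonist-evoked cGMP luminescence read 20 min after hNppA addition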)
Details: hNpr1 cells, antagonist mode cGMP read-out; series mostly up to 57.5 µM
Outline: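 Receptor antagonism read as cGMP-dependent luminescence in hNpr1/pGS-40F HEK293 cells: pre-read after 30 min compound exposure, post-read 20 min after hNppA agonist at 0.1 nM final, all at room temperature, protected from light; A-71915 titration as control.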
In the case of `CN(C)CCCN1c2ccccc2CCc2ccc(Cl)cc21`, the Potency is reported as inconclusive: 3.79 µM [inhibitor, full curve]. With `N[C@@H](Cc1ccc(O)c(O)c1)C(=O)O` the Potency was inconclusive: 23.9 µM [inhibitor, single point]. In the case of `COc1ccc(Cc2nccc3cc(OC)c(OC)cc23)cc1OC`, the Potency is reported as inconclusive: 23.9 µM [inhibitor, single point]. In the case of `Cn1c(=O)c2c(ncn2C)n(C)c1=O`, the Potency is reported as inconclusive: 4.78 µM [inhibitor, single point].

Target: Atrial natriuretic peptide receptor 2 (Homo sapiens) (UniProt P20594)
UniProt P20594, sequence (P20594 whole entry, looked up): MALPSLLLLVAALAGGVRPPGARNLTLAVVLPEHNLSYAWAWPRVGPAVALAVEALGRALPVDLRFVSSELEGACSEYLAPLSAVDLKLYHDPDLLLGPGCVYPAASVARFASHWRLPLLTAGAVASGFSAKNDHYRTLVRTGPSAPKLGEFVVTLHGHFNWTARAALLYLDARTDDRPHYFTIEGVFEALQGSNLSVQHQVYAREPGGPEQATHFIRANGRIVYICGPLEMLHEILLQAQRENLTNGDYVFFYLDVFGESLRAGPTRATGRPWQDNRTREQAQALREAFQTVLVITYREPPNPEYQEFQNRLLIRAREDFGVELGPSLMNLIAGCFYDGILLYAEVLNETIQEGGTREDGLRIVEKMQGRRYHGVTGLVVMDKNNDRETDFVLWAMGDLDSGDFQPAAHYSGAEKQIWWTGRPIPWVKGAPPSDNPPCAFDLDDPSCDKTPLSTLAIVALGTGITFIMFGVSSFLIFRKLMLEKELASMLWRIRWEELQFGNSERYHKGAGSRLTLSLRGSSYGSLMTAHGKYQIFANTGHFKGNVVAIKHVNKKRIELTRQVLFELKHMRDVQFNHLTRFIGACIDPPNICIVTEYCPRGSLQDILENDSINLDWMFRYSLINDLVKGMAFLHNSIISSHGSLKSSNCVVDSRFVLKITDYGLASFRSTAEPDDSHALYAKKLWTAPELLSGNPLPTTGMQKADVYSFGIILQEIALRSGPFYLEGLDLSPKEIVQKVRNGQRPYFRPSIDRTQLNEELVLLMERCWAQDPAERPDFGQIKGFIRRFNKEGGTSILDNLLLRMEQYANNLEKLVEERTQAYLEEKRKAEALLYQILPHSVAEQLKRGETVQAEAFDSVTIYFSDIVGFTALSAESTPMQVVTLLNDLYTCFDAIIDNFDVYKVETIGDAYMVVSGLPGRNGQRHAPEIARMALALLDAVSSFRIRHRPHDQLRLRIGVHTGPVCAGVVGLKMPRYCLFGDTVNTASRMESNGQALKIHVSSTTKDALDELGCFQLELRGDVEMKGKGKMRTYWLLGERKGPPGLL
Assay: Natriuretic polypeptide receptor (hNpr2) antagonism - Pilot subtype selectivity assay (AID 1347050; calls by dose curve)
Details: NPR2-expressing cells, cGMP antagonist-mode read-out; series mostly up to 38.3 µM
Outline: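 Antagonist mode: compounds (LOPAC1280, seven 1:5 dilutions) added 30 min before 1 nM hNppC stimulation of hNpr2-HEK293 cGMP-sensor cells; luminescence read before and 20 min after agonist at ambient temperature.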
For `CN(C)CCCN1c2ccccc2CCc2ccc(Cl)cc21`, the Potency was active: 7.36 µM. For `COc1cc2c(cc1OC)C1CC(=O)C(CC(C)C)CN1CC2` (centres undefined), the Potency was “inactive”. In the case of `CC1=C(C(=O)O)N2C(=O)[C@@H](NC(=O)C(N)c3ccccc3)[C@H]2SC1` (some centres undefined), the Potency is reported as “inactive”. In the case of `CCCCCN(C)CCC(O)(P(=O)(O)O)P(=O)(O)O`, the Potency is reported as “inactive”. With `COc1ccc(Cc2nccc3cc(OC)c(OC)cc23)cc1OC` the Potency was inconclusive: 13.1 µM [inhibitor, single point].

System: not listed separately
Assay: NS1 protein of Zika virus - qHTS assay to identify small molecule inhibitors in human HEK 293 cells (AID 1347053); further: nearly all actives have a fitted effect of over 55% in size
Details: HEK293 ZIKV MR766 infection, NS1 TR-FRET, 24 h; series mostly up to 46.1 µM
Outline: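 Compound-treated (1 h pre-infection) HEK 293 cells infected with ZIKV MR766, MOI = 0.5; after 24 h at 37 C, NS1 read by TR-FRET; data normalized to uninfected and infected controls.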
In the case of `CC(C)c1nc(CN(C)C(=O)N[C@H](C(=O)N[C@@H](Cc2ccccc2)C[C@H](O)[C@H](Cc2ccccc2)NC(=O)OCc2cncs2)C(C)C)cs1`, the Potency is reported as inconclusive: 37.2 µM [inhibitor, single point]. In the case of `CN(C)CCCN1c2ccccc2CCc2ccc(Cl)cc21`, the Potency is reported as inconclusive: 33.2 µM [inhibitor, single point]. For `CC1(C)CC(=O)c2c(C(F)(F)F)nn(-c3ccc(C(N)=O)c(NC4CCC(O)CC4)c3)c2C1` (centres undefined), the Potency was active: 23.5 µM. With `CCc1c2c(nc3ccc(OC(=O)N4CCC(N5CCCCC5)CC4)cc13)-c1cc3c(c(=O)n1C2)COC(=O)[C@]3(O)CC` the Potency was inconclusive: 5.62 µM [inhibitor, full curve, poor fit] and active: 332 nM. With `CC(=O)N[C@@H]1[C@H](O[C@@H]2c3ccc(c(Cl)c3)Oc3cc4cc(c3O[C@H]3O[C@H](CO)[C@@H](O)[C@H](O)[C@H]3NC(=O)CCCCCCCC(C)C)Oc3ccc(cc3Cl)C[C@H]3NC(=O)[C@H](N)c5ccc(O)c(c5)Oc5cc(O)cc(c5)[C@H](NC3=O)C(=O)N[C@H]4C(=O)N[C@H]3C(=O)N[C@@H]2C(=O)N[C@@H](C(=O)O)c2cc(O)cc(O[C@H]4O[C@H](CO)[C@@H](O)[C@H](O)[C@H]4O)c2-c2cc3ccc2O)O[C@H](CO)[C@@H](O)[C@@H]1O` the Potency was inconclusive: 33.2 µM [inhibitor, single point]. For `N#Cc1c(NC(=O)c2cccc3ccccc23)sc2c1CCCC2`, the Potency was active: 10.5 µM. For `CC(=O)[C@H]1CC[C@H]2[C@@H]3CC=C4C[C@@H](O)CC[C@]4(C)[C@H]3CC[C@]12C`, the Potency was “inactive”. With `COc1c(C)c2c(c(O)c1CC=C(C)CCC(=O)OCCN1CCOCC1)C(=O)OC2` the Potency was active: 0.526 µM. In the case of `Nc1nc(F)nc2c1ncn2[C@@H]1O[C@H](CO)[C@@H](O)[C@@H]1O`, the Potency is reported as active: 2.09 µM. With `CCN1CCN(c2ccc(Nc3cc(N(C)C(=O)Nc4c(Cl)c(OC)cc(OC)c4Cl)ncn3)cc2)CC1` the Potency was “inactive”. With `O=C1CCC(N2C(=O)c3ccccc3C2=O)C(=O)N1` (centres undefined) the Potency was “inactive”. In the case of `Cc1cccc(CN2CCN(C(c3ccccc3)c3ccc(Cl)cc3)CC2)c1` (centres undefined), the Potency is reported as inconclusive: 37.2 µM [inhibitor, single point]. For `CN(C)c1ccccc1CN1CCCN(Cc2ccccc2N(C)C)C1c1ccncc1`, the Potency was active: 11.8 µM. For `Cc1c(C(=O)NN2CCCCC2)nn(-c2ccc(Cl)cc2Cl)c1-c1ccc(Cl)cc1`, the Potency was inconclusive: 35.5 µM [inhibitor, single point]. In the case of `O=S(=O)(NCCNCC=Cc1ccc(Br)cc1)c1cccc2cnccc12`, the Potency is reported as inconclusive: 33.2 µM [inhibitor, single point]. For `COCCCOc1ccnc(CS(=O)c2nc3ccccc3[nH]2)c1C` (centres undefined), the Potency was “inactive”. For `COc1cccc2c1C(=O)c1c(O)c3c(c(O)c1C2=O)C[C@@](O)(C(=O)CO)C[C@@H]3O[C@H]1C[C@H](N)[C@@H](O)[C@H](C)O1`, the Potency was active: 0.296 µM. With `CO[C@H]1/C=C\O[C@@]2(C)Oc3c(C)c(O)c4c(O)c(c(C=NN5CCN(C6CCCC6)CC5)c(O)c4c3C2=O)NC(=O)C(C)=CC=C[C@H](C)[C@H](O)[C@@H](C)[C@@H](O)[C@@H](C)[C@H](OC(C)=O)[C@H]1C` the Potency was inconclusive: 33.2 µM [inhibitor, single point]. In the case of `CCN(CC)Cc1ccc2cc(COC(=O)Nc3ccc(C(=O)NO)cc3)ccc2c1`, the Potency is reported as inconclusive: 33.2 µM [inhibitor, single point]. With `CCN(CC)CCNC(=O)c1ccc2nc(-c3ccccc3)c(-c3ccc(CN4CCC(n5c(=O)[nH]c6ccccc65)CC4)cc3)nc2c1` the Potency was active: 3.32 µM. With `CC(C)(N)c1ccc(-c2nc3ccccc3nc2-c2ccccc2)cc1` the Potency was active: 18.7 µM. In the case of `NC(=O)N1CCC(CC(=O)N2CCC([C@H]3c4ncc(Br)cc4CCc4cc(Cl)cc(Br)c43)CC2)CC1`, the Potency is reported as inconclusive: 37.2 µM [inhibitor, single point]. For `CN(CC(=O)N(Cc1ccc(C2CCCCC2)cc1)c1ccc(C(=O)O)c(O)c1)S(=O)(=O)c1c(F)c(F)c(F)c(F)c1F`, the Potency was inconclusive: 11.8 µM [inhibitor, single point]. For `CCC(C)(C)c1ccc(CC(C)CN2C[C@@H](C)O[C@@H](C)C2)cc1` (some centres undefined), the Potency was inconclusive: 23.5 µM [inhibitor, single point]. In the case of `c1nc2nc(Nc3ccc(N4CCOCC4)cc3)nc(NC3CCCCC3)c2[nH]1`, the Potency is reported as inconclusive: 33.2 µM [inhibitor, single point]. With `C[C@@H](N)c1ccc(C(=O)Nc2ccnc3[nH]ccc23)cc1` the Potency was “inactive”. For `c1cncc(CN2CCC(n3ncc4c(N5CCOCC5)nc(-c5ccc6[nH]ccc6c5)nc43)CC2)c1`, the Potency was active: 14.8 µM. In the case of `CCNC(=O)[C@H]1O[C@@H](n2cnc3c(N)nc(NCCc4ccc(CCC(=O)O)cc4)nc32)[C@H](O)[C@H]1O`, the Potency is reported as “inactive”. For `C[C@@H]1[C@H](C)CC[C@]2(C(=O)O)CC[C@]3(C)C(=CC[C@@H]4[C@@]5(C)C[C@@H](O)[C@H](O)[C@@](C)(CO)[C@H]5CC[C@]43C)[C@@H]12`, the Potency was inconclusive: 33.2 µM [inhibitor, single point]. For `COc1ccc2c(c1)c(C1=C(c3c[nH]c4ccccc34)C(=O)NC1=O)cn2CCCN(C)C`, the Potency was “inactive”.
